# According to PubChem BioAssay (NCATS):
# Inconclusive means that the source gave no clear call. Such entries were picked first, then a sample of the others. For some of these results: Potencies of inconclusive entries are doubtful fits and often do not repeat. Active and inactive are the calls of the source. Calls follow the shape of the dose curve; as a rule, active = well fitted curve in the direction sought with a large enough effect; inconclusive = small, poorly fitted or top-dose-only effect, or another doubt; inactive = no such curve, though single readings can be large; an effect the other way counts as inactive or inconclusive.
# Key:
# WaGa = test: qHTS assay to identify novel small-molecules to repurpose for Merkel cell carcinoma treatment (AID 1296009); conditions: MCC and control cell lines, CellTiter-Glo viability, 72 h; series mostly up to 46 µM; also: nearly all actives have a fitted effect of over 60% in size
# Method in brief: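 Cell viability, measured as CellTiter-Glo luminescence, was normalized between DMSO and no-cell wells. The cells had been exposed to 8- or 11-point compound dilutions for 72 hr at 37 degree celsius.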
# HeLa = test: Primary qHTS to identify gynecologic anti-cancer compounds using libraries of approved drugs and bioactive compounds (AID 1345084); conditions: Gynecologic cancer cell panel viability, ATPlite luminescence, 48 h; series mostly up to 57.5 µM; also: nearly all actives have a fitted effect of over 55% in size
# Method in brief: (§1)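 Cytotoxicity screen measuring ATP content by luciferase luminescence. Each compound is applied at five concentrations for 48 h at 37 C with 5% CO2.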
# W2 = test: qHTS profiling for inhibitors of Plasmodium falciparum proliferation (AID 504749); also: nearly all actives have a fitted effect of over 60% in size; conditions: P. falciparum in erythrocytes, SYBR Green DNA, 72 h; series mostly up to 28.7 µM
# Method in brief: (§2)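 SYBR Green fluorescence of parasite DNA, read after lysis and overnight dark incubation, measured growth over 72 h in erythrocyte culture at 0.3% parasitemia and 2.5% hematocrit. Data normalised to DMSO and 0.29 uM artemisinin, with plate-drift correction.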
# TAB113 = test: as above; conditions: P. falciparum in erythrocytes, SYBR Green DNA, 72 h; series mostly up to 28.7 µM
# Method in brief: as §2
# TAB109 = test: as above; conditions: P. falciparum in erythrocytes, SYBR Green DNA, 72 h; series mostly up to 28.7 µM
# Method in brief: as §2
# C33A = test: Primary qHTS to identify gynecologic anti-cancer compounds using libraries of approved drugs and bioactive compounds (AID 1345084); conditions: Gynecologic cancer cell panel viability, ATPlite luminescence, 48 h; series mostly up to 57.5 µM; also: nearly all actives have a fitted effect of over 55% in size
# Method in brief: as §1
# Es-2 = test: as above; conditions: Gynecologic cancer cell panel viability, ATPlite luminescence, 48 h; series mostly up to 57.5 µM
# Method in brief: as §1
# SC27B = test: qHTS profiling for inhibitors of Plasmodium falciparum proliferation (AID 504749); also: nearly all actives have a fitted effect of over 60% in size; conditions: P. falciparum in erythrocytes, SYBR Green DNA, 72 h; series mostly up to 28.7 µM
# Method in brief: as §2
# CAOV3 = test: Primary qHTS to identify gynecologic anti-cancer compounds using libraries of approved drugs and bioactive compounds (AID 1345084); conditions: Gynecologic cancer cell panel viability, ATPlite luminescence, 48 h; series mostly up to 57.5 µM; also: nearly all actives have a fitted effect of over 55% in size
# Method in brief: as §1
# CASKI = test: as above; conditions: Gynecologic cancer cell panel viability, ATPlite luminescence, 48 h; series mostly up to 57.5 µM
# Method in brief: as §1
# OV90 = test: as above; conditions: Gynecologic cancer cell panel viability, ATPlite luminescence, 48 h; series mostly up to 57.5 µM
# Method in brief: as §1
# Hek293T = test: as above; conditions: Gynecologic cancer cell panel viability, ATPlite luminescence, 48 h, control line for the selectivity index; series mostly up to 57.5 µM
# Method in brief: as §1
# JEG-3 = test: as above; conditions: Gynecologic cancer cell panel viability, ATPlite luminescence, 48 h; series mostly up to 57.5 µM
# Method in brief: as §1
# Potency is read from the fitted curve at half-maximal effect; tags tell the direction and shape of the fitted curve.
compound,measurement,setting,value
C#C[C@]1(O)C=C[C@H]2[C@@H]3CCC4=CC(=O)CC[C@@H]4[C@H]3CC[C@@]21CC,Potency,WaGa,inactive
same,Potency,HeLa,active: 12600 nM
CCC(C(N)=O)N1CCCC1=O (stereo not drawn),Potency,W2,"inconclusive: 7.6 nM [inhibitor, full curve, poor fit]"
same,Potency,WaGa,inactive
same,Potency,HeLa,inactive
CCCN1CCO[C@@H]2c3cc(O)ccc3OC[C@@H]21,Potency,WaGa,"inconclusive: 13200 nM [inhibitor, partial curve]"
NC(=O)CN1CCCC1=O,Potency,TAB113,inactive
same,Potency,WaGa,inactive
CCCCCCCCC(=O)NCc1ccc(O)c(OC)c1,Potency,TAB109,inactive
same,Potency,WaGa,inactive
same,Potency,C33A,"inconclusive: 100 nM [cytotoxic, full curve, poor fit]"
same,Potency,Es-2,inconclusive: 100 nM
CN1C(=O)[C@@H](NC(=O)c2cc3ccccc3[nH]2)N=C(c2ccccc2)c2ccccc21,Potency,SC27B,"inconclusive: 10000 nM [inhibitor, single point]"
same,Potency,TAB109,"inconclusive: 17800 nM [inhibitor, single point]"
same,Potency,TAB113,"inconclusive: 15800 nM [inhibitor, single point]"
same,Potency,W2,active: 7570 nM
same,Potency,WaGa,inactive
same,Potency,CAOV3,"inconclusive: 39800 nM [cytotoxic, single point]"
same,Potency,CASKI,"inconclusive: 39800 nM [cytotoxic, single point]"
same,Potency,Es-2,"inconclusive: 39800 nM [cytotoxic, single point]"
same,Potency,OV90,"inconclusive: 25100 nM [cytotoxic, single point]"
COC1C(O)C(OC2CCC3(C=O)C(CCC4C3CCC3(C)C(C5=CC(=O)OC5)CCC43O)C2)OC(C)C1OC1OC(CO)C(O)C(O)C1O (stereo not drawn),Potency,C33A,active: 501 nM
same,Potency,CAOV3,active: 2000 nM
same,Potency,CASKI,"inconclusive: 2240 nM [cytotoxic, partial curve, poor fit]"
same,Potency,Es-2,active: 891 nM
same,Potency,HeLa,active: 1260 nM
same,Potency,Hek293T,active: 1000 nM
same,Potency,JEG-3,active: 2240 nM
COC1CC(O[C@H]2CC[C@]3(C)C4CC[C@]5(C)[C@@H](C6=CC(=O)OC6)[C@@H](OC(C)=O)C[C@]5(O)C4CC[C@@H]3C2)OC(C)C1O[C@@H]1O[C@H](CO)[C@@H](O)[C@H](O)[C@H]1O (stereo partly drawn),Potency,C33A,active: 631 nM
same,Potency,CAOV3,active: 1120 nM
same,Potency,CASKI,active: 3160 nM
same,Potency,Es-2,active: 794 nM
same,Potency,HeLa,"inconclusive: 708 nM [cytotoxic, full curve, poor fit]"
same,Potency,Hek293T,active: 1410 nM
same,Potency,JEG-3,"inconclusive: 2820 nM [cytotoxic, single point]"
C[C@]12CC[C@H](O[C@@H]3O[C@H](CO)[C@@H](O)[C@H](O)[C@H]3O)CC1CC[C@@H]1C2CC[C@]2(C)[C@@H](C3=CC(=O)OC3)CC[C@]12O (stereo partly drawn),Potency,C33A,active: 5620 nM
same,Potency,CAOV3,"inconclusive: 17800 nM [cytotoxic, single point]"
same,Potency,CASKI,"inconclusive: 20000 nM [cytotoxic, single point]"
same,Potency,Es-2,active: 10000 nM
same,Potency,HeLa,active: 10000 nM
same,Potency,Hek293T,active: 7940 nM
same,Potency,JEG-3,"inconclusive: 20000 nM [cytotoxic, single point]"
C=CC/C=C\C/C=C\CCCCCCCc1cc(O)cc(O)c1,Potency,C33A,inactive
CC(=O)OC[C@]12C[C@H](OC(C)=O)C(C)=C[C@H]1O[C@@H]1[C@H](O)[C@@H](O)[C@@]2(C)[C@]12CO2,Potency,C33A,"inconclusive: 5010 nM [cytotoxic, full curve, poor fit]"
same,Potency,CAOV3,active: 1000 nM
same,Potency,CASKI,active: 1410 nM
same,Potency,Es-2,active: 1260 nM
same,Potency,HeLa,"inconclusive: 2000 nM [cytotoxic, full curve, poor fit]"
same,Potency,Hek293T,active: 398 nM
same,Potency,JEG-3,active: 5620 nM
same,Potency,OV90,active: 3160 nM
COC1CC(O[C@H]2CC[C@@]3(C)C(CCC4C3CC[C@]3(C)C(C5=CC(=O)OC5)CCC43O)C2)OC(C)C1OC1OC(COC2OC(CO)C(O)C(O)C2O)C(O)C(O)C1O (stereo partly drawn),Potency,C33A,active: 2240 nM
same,Potency,CAOV3,"inconclusive: 4470 nM [cytotoxic, single point]"
same,Potency,CASKI,"inconclusive: 10000 nM [cytotoxic, single point]"
same,Potency,Es-2,active: 3160 nM
same,Potency,HeLa,active: 2820 nM
same,Potency,Hek293T,active: 3550 nM
same,Potency,JEG-3,"inconclusive: 11200 nM [cytotoxic, single point]"
O=C(C[C@@H]1NCCC[C@H]1O)Cn1cnc2ccccc2c1=O,Potency,C33A,active: 631 nM
same,Potency,CAOV3,"inconclusive: 1410 nM [cytotoxic, full curve, poor fit]"
same,Potency,CASKI,active: 1780 nM
same,Potency,Es-2,active: 1410 nM
same,Potency,HeLa,active: 1780 nM
same,Potency,Hek293T,active: 447 nM
same,Potency,JEG-3,"inconclusive: 2240 nM [cytotoxic, full curve, poor fit]"
same,Potency,OV90,active: 11200 nM
COC1C(O)C(C)OC(OC2C(CO)O[C@@H](O[C@@H]3CC4CCC5C(CC[C@]6(C)[C@@H](C7=CC(=O)OC7)CC[C@]56O)[C@@]4(C)[C@H](O)C3)C(O)C2O)C1O (stereo partly drawn),Potency,C33A,active: 794 nM
same,Potency,CAOV3,active: 2820 nM
same,Potency,CASKI,active: 2510 nM
same,Potency,Es-2,active: 2820 nM
same,Potency,HeLa,active: 2820 nM
same,Potency,Hek293T,active: 2820 nM
same,Potency,JEG-3,"inconclusive: 3550 nM [cytotoxic, partial curve, poor fit]"
